# Source: PubChem BioAssay (NCATS)
# Values joined by “and” are separate entries in the source; they are usually repeats but may differ in a detail not shown here. Equal values may be shown once. This list was built around the results that the source calls inconclusive (neither active nor inactive); the mix of calls is not that of the screen. For some assays here: Potencies of inconclusive entries are doubtful fits and often do not repeat. Active and inactive are the calls of the source. Unless noted, the call rests on the fitted dose curve; in most records, active means well fitted curve in the direction sought with a large enough effect; inconclusive means small, poorly fitted or top-dose-only effect, or another doubt; inactive means no such curve, though single readings can be large; an effect the other way counts as inactive or inconclusive.
# How the values were obtained:
# [1] = P-glycoprotein substrates identified in KB-8-5-11 adenocarcinoma cell line, qHTS therapeutic library screen (AID 1346987); further: nearly all actives have a fitted effect of over 65% in size
# Procedure, shortened: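 P-gp-mediated resistance screen: KB-8-5-11 cells treated 72 h with compounds in dose-response. CellTiter-Glo viability.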
# [2] = Primary qHTS for inhibitors of nuclear receptor binding SET domain protein 2 (NSD2) in an isogenic RCH-ACV NSD2 p.E1099K mutant (9B) (AID 1645876); further: nearly all actives have a fitted effect of over 70% in size
# [3] = Primary qHTS for inhibitors of nuclear receptor binding SET domain protein 2 (NSD2) in an RCH-ACV wild type WT cells (2C) (AID 1645877); conditions: activity change, negative = cell killing: at 44.9 µM (top of the series); further: nearly all actives have a fitted effect of over 70% in size
# HEK293 = assay: Cytotoxic Profiling of Annotated Libraries Using Quantitative High-Throughput Screening (AID 1296008); conditions: Five cell lines viability, CellTiter-Glo ATP luminescence, 48-72 h; max response: stronger effect = lower value; further: nearly all actives have a fitted effect of over 60% in size; on max response: on the % scale 0 is the no-effect control and ±100 the full control effect
# Procedure, shortened: (§1)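 Compounds were pin-transferred onto cells and incubated 48 or 72 hr at 37 degree Celsius, 95% humidity. CellTiter-Glo was added, plates sat 10 min at room temperature, then ATP-coupled luminescence was imaged as the viability read-out.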
# HaCat = assay: as above; conditions: Five cell lines viability, CellTiter-Glo ATP luminescence, 48-72 h; max response: stronger effect = lower value
# Procedure, shortened: as §1
# SKOV3 = assay: Primary qHTS to identify gynecologic anti-cancer compounds using libraries of approved drugs and bioactive compounds (AID 1345084); conditions: Gynecologic cancer cell panel viability, ATPlite luminescence, 48 h; series mostly up to 57.5 µM; further: nearly all actives have a fitted effect of over 55% in size; on activity change, negative = cytotoxicity: on the % scale 0 is the no-effect control and ±100 the full control effect
# Procedure, shortened: (§2)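 Measured: luminescence after ATPlite addition (15 min, RT). Exposure: 48 h, 37 C, 5% CO2.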
# [4] = test system: Zika virus NS2B-NS3 protease (unlinked complex); assay: Primary screen GU Rhodamine qHTS for Zika virus inhibitors: Unlinked NS2B-NS3 protease assay (AID 1347159); further: nearly all actives have a fitted effect of over 60% in size
# Procedure, shortened: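 Compounds, tested up to 114 microM, were incubated for 15 minutes with 25 nM unlinked NS2B-NS3 protease at pH 8.0. Cleavage of 1.5 microM Rhodamine110 substrate was then followed by fluorescence for 15 minutes.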
# [5] = target: Cytochrome P450 2D6 (Homo sapiens) (UniProt P10635); assay: Cytochrome P450 family 2 subfamily D member 6 (CYP2D6) small molecule antagonists: luciferase biochemical (cell-free) qHTS assay (AID 1645840; active means well fitted curve in the direction sought with a large enough effect in the repeat runs; inconclusive means weak or mixed curves; inactive means no such curve, though single readings can be large; an effect the other way counts as inactive or inconclusive; further: nearly all actives have a fitted effect of over 55% in size)
# Procedure, shortened: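 P450-Glo luminescent screen: recombinant CYP2D6 enzyme–proluciferin substrate mix preincubated with compound 10 min at room temperature, then NADPH regeneration added for 1 h at room temperature. Detection reagent added for 20 min; luciferin light read as relative luminescence units.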
# CASKI = assay: Primary qHTS to identify gynecologic anti-cancer compounds using libraries of approved drugs and bioactive compounds (AID 1345084); conditions: Gynecologic cancer cell panel viability, ATPlite luminescence, 48 h; activity change, negative = cytotoxicity: at 57.5 µM (top of the series); further: nearly all actives have a fitted effect of over 55% in size; on activity change, negative = cytotoxicity: on the % scale 0 is the no-effect control and ±100 the full control effect
# Procedure, shortened: as §2
# HeLa = assay: as above; conditions: Gynecologic cancer cell panel viability, ATPlite luminescence, 48 h; series mostly up to 57.5 µM
# Procedure, shortened: as §2
# PA-1 = assay: as above; conditions: Gynecologic cancer cell panel viability, ATPlite luminescence, 48 h; series mostly up to 57.5 µM
# Procedure, shortened: as §2
# Tov-21-G = assay: as above; conditions: Gynecologic cancer cell panel viability, ATPlite luminescence, 48 h; activity change, negative = cytotoxicity: at 57.5 µM (top of the series)
# Procedure, shortened: as §2
# [6] = Primary fluorescence-based thiol-reactive (MSTI) qHTS assay for identification of artifact compounds. (AID 1845221);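 further: thiol-reactive compounds lower the probe fluorescence signal; nearly all actives have a fitted effect of over 65% in size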
# Procedure, shortened: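 Reactivity toward the thiol probe MSTI (4 uM) is scored by fluorescence at Ex/Em 525/598 nm after 1 h at room temperature. Acetyl-MSTI and MSTI define the activity scale.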
# C33A = assay: Primary qHTS to identify gynecologic anti-cancer compounds using libraries of approved drugs and bioactive compounds (AID 1345084); conditions: Gynecologic cancer cell panel viability, ATPlite luminescence, 48 h; series mostly up to 57.5 µM; further: nearly all actives have a fitted effect of over 55% in size; on activity change, negative = cytotoxicity: on the % scale 0 is the no-effect control and ±100 the full control effect
# Procedure, shortened: as §2
# CAOV3 = assay: as above; conditions: Gynecologic cancer cell panel viability, ATPlite luminescence, 48 h; series mostly up to 57.5 µM
# Procedure, shortened: as §2
# Hek293T = assay: as above; conditions: Gynecologic cancer cell panel viability, ATPlite luminescence, 48 h, control line for the selectivity index; series mostly up to 57.5 µM
# Procedure, shortened: as §2
# Potency means the concentration at half of the fitted maximal effect; tags describe the fitted curve by direction and shape.
# UniProt P10635, sequence (P10635 whole entry, looked up): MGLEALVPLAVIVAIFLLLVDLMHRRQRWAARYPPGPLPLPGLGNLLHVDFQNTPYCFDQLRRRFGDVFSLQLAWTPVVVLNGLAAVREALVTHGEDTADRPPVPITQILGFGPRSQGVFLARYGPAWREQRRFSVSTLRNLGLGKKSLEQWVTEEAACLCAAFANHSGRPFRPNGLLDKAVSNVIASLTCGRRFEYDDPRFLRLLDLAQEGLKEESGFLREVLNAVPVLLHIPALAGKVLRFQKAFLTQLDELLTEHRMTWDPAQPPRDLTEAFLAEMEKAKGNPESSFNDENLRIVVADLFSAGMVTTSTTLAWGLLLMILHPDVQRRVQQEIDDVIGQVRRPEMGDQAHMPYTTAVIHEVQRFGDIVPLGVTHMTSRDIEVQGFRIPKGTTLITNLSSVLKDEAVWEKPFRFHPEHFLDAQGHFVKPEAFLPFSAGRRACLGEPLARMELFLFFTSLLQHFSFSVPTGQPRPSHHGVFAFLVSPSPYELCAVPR
smiles,measurement,setting,value
O=C(CNC(=O)c1cccc(C(F)(F)F)c1)N[C@@H]1CCN(Cc2ccc(Cl)cc2)C1,Potency,[1],"inconclusive: 18.4 µM [inhibitor, single point]"
same,Potency,[2],"inconclusive: 23 µM [inhibitor, single point]"
same,Potency,[3],"inconclusive: 16.3 µM [inhibitor, partial curve]"
same,Potency,HEK293,"inconclusive: 18.4 µM [inhibitor, single point]"
same,Potency,HaCat,"inconclusive: 13 µM [inhibitor, partial curve, poor fit]"
same,Potency,SKOV3,"inconclusive: 39.8 µM [cytotoxic, single point]"
CCN1CCN(Cc2ccc(Nc3ncc(F)c(-c4cc(F)c5nc(C)n(C(C)C)c5c4)n3)nc2)CC1,Potency,[1],active: 4.11 µM
same,Potency,[4],inactive
same,Potency,[5],"inconclusive: 19 µM [inhibitor, single point]"
same,Potency,[3],active: 649 nM and active: 417 nM
same,Potency,HEK293,active: 3.66 µM
same,Potency,HaCat,"inconclusive: 1.84 µM [inhibitor, partial curve, poor fit]"
same,Potency,CASKI,inactive
same,Potency,HeLa,"inconclusive: 4.47 µM [cytotoxic, partial curve, poor fit]"
same,Potency,PA-1,"inconclusive: 20 µM [cytotoxic, partial curve, poor fit]"
same,Potency,SKOV3,"inconclusive: 1.41 µM [cytotoxic, full curve, poor fit]"
same,Potency,Tov-21-G,"inconclusive: 6.31 µM [cytotoxic, partial curve]"
CC1(C)SCCN(S(=O)(=O)c2ccc(Oc3ccncc3)cc2)[C@H]1C(=O)NO,Potency,[2],"inconclusive: 20.5 µM [inhibitor, partial curve]"
same,Potency,[3],"inconclusive: 23 µM [inhibitor, partial curve]"
same,Potency,[6],"inconclusive: 1.68 µM [inhibitor, full curve]"
same,Potency,HEK293,"inconclusive: 20.6 µM [inhibitor, single point]"
same,Potency,HaCat,"inconclusive: 1.3 µM [inhibitor, full curve]"
same,Potency,CASKI,"inconclusive: 1.41 µM [cytotoxic, single point]"
CC(=O)c1ccc(O[C@@H]2O[C@H](CO)[C@@H](O)[C@H](O)[C@H]2O)cc1,max response,HEK293,inactive: -8.37%
same,Potency,HaCat,"inconclusive: 20.6 µM [inhibitor, single point]"
same,Potency,C33A,inactive
same,Potency,SKOV3,inactive
Fc1ccc(N2CCCCC2)c(NC(=S)c2ccncc2)c1,Potency,[1],"inconclusive: 23.1 µM [inhibitor, partial curve, poor fit]"
same,Potency,[2],active: 10.3 µM
same,Potency,[3],active: 12.9 µM
same,Potency,HEK293,"inconclusive: 16.4 µM [inhibitor, partial curve]"
same,Potency,HaCat,"inconclusive: 11.6 µM [inhibitor, partial curve, poor fit]"
same,Potency,CAOV3,inactive
same,Potency,Hek293T,"inconclusive: 39.8 µM [cytotoxic, single point]"
CC(O)/C=C/C1(O)C(C)C(O[C@@H]2O[C@H](CO)[C@@H](O)[C@H](O)[C@H]2O)C(O)CC1(C)C (stereo partly drawn),Potency,[3],inactive
same,Potency,[6],"inconclusive: 7.33 µM [inhibitor, partial curve]"
same,outcome,HEK293,inactive
same,Potency,HaCat,"inconclusive: 2.82 µM [inhibitor, partial curve, poor fit]"
same,Potency,CAOV3,inactive
same,Potency,SKOV3,inactive
COc1cc(C2OCC3C(c4ccc(OC5OC(CO)C(O)C(O)C5O)c(OC)c4)OCC23)ccc1O (stereo not drawn),Potency,[2],"inconclusive: 14.2 µM [inhibitor, partial curve, poor fit]"
same,Potency,[6],inactive
same,outcome,HEK293,inactive
same,max response,HaCat,inactive: -4.17%
same,Potency,C33A,inactive
C=C(C)[C@@H]1CC[C@]2(C(=O)O)CC[C@]3(C)[C@H](CCC4[C@@]5(C)CCC(=O)C(C)(C)C5C(O)C[C@]43C)C12 (stereo partly drawn),Potency,[4],inactive
same,Potency,[2],"inconclusive: 8.93 µM [inhibitor, partial curve]"
same,Potency,[3],"inconclusive: 7.96 µM [inhibitor, partial curve]"
same,Potency,HEK293,active: 4.47 µM
same,outcome,HaCat,inactive
Cn1c(CO)c(-c2ccccc2)c2cc([N+](=O)[O-])ccc21,Potency,[1],inactive
same,Potency,[5],"inconclusive: 8.49 µM [inhibitor, partial curve]"
same,Potency,[2],"inconclusive: 18.3 µM [inhibitor, single point]"
same,Potency,[3],"inconclusive: 20.5 µM [inhibitor, single point]"
same,Potency,[6],"inconclusive: 2.12 µM [inhibitor, partial curve, poor fit]"
same,Potency,HEK293,"inconclusive: 29.1 µM [inhibitor, single point]"
same,max response,HaCat,inactive: -23.7%
same,Potency,CAOV3,"inconclusive: 1.58 µM [cytotoxic, single point]"
same,Potency,HeLa,"inconclusive: 31.6 µM [cytotoxic, single point]"
same,Potency,Hek293T,inactive
same,Potency,SKOV3,"inconclusive: 7.08 µM [rising, single point]"
CC1=CC2/C=C(\C)CCC3OC(C)(C)OC3CCC(=O)C23C(=O)NC(CC(C)C)C3C1C (stereo not drawn),Potency,[1],"inconclusive: 7.96 µM [inhibitor, single point]"
same,Potency,[4],"inconclusive: 8.91 µM [inhibitor, full curve]"
same,Potency,[2],"inconclusive: 7.96 µM [inhibitor, single point]"
same,Potency,[3],"inconclusive: 14.2 µM [inhibitor, single point]"
same,Potency,HEK293,"inconclusive: 8.93 µM [inhibitor, single point]"
same,Potency,HaCat,"inconclusive: 12.6 µM [inhibitor, single point]"
same,Potency,CAOV3,inactive
